From paper PMC4336329 (PLoS ONE, 2015)
The whole screen tested about 310,000 compounds, of which about 2,200 (0.71%) showed an effect of 50% or more. Effects have a minus sign here. The list shows a part of the results.

Molecular target: human ether-à-go-go-related gene (hERG) potassium channel (human, UniProt Q12809)
Assay: primary screen, population patch clamp on CHO cells stably expressing hERG

human ether-à-go-go-related gene (hERG) potassium channel, sequence (Q12809 whole entry, looked up): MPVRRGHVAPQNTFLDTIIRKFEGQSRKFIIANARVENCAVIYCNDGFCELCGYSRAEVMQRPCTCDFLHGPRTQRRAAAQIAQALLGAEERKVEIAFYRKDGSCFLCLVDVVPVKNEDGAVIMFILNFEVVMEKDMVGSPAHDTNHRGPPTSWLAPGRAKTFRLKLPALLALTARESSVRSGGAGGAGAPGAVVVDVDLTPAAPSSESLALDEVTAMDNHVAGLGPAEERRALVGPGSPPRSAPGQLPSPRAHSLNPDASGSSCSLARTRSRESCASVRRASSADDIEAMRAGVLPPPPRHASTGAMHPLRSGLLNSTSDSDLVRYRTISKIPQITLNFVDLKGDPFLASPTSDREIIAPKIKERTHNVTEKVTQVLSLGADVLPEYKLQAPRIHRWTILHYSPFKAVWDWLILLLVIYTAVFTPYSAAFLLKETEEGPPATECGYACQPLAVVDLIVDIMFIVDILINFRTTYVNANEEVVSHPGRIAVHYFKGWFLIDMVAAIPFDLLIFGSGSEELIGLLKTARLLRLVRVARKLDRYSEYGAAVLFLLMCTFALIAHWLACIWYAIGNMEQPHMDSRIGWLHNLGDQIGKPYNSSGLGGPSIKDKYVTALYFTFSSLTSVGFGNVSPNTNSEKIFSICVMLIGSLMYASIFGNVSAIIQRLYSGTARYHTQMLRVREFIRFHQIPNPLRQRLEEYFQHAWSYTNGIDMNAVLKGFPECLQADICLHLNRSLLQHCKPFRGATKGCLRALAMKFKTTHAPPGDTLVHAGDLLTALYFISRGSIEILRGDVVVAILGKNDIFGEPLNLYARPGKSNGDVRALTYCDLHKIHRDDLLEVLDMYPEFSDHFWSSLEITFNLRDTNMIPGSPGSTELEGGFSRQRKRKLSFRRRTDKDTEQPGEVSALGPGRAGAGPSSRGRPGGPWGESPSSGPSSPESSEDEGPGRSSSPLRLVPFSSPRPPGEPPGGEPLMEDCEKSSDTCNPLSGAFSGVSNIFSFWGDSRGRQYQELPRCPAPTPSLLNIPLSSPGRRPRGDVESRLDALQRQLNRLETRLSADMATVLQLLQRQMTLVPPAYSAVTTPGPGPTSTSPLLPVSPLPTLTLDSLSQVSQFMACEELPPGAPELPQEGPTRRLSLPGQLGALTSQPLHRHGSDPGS

SMILES | hERG current change (%, negative = inhibition) at 1uM
CCOc1ccc(NC(=O)C2CC(=O)N(c3cc(C)cc(C)c3)C2)cc1 (stereo not shown) | 1.34%
COC(=O)C1=C(C)NC(=O)C1(Nc1ccc(Cl)cn1)C(F)(F)F (stereo not shown) | 10.5%
COc1ccc(CN(C(=O)CSc2nnc(-c3ccccc3C)o2)c2ccc(F)cc2)cc1 | 8%
Cc1ccc(S(=O)(=O)/N=C/c2cc(Br)ccc2O)cc1 | 10.6%
Clc1ccc(-c2nnsc2SCc2ccccc2)cc1 | 3.26%
Cc1ccc(-c2csc(C3=C(O)CN(NC(=O)c4ccc([N+](=O)[O-])cc4)C3=N)n2)cc1 | 4.51%
Fc1ccccc1CCNCc1ccccc1 | 17.8%
O=C(CCNS(=O)(=O)c1cccs1)N1CCc2ccccc2C1 | 6.61%
Cc1cccc(OCCCC(=O)Nc2ccc(S(=O)(=O)N3CCCC3)cc2)c1 | 6.93%
CN(C)c1ccc(NC(=O)CSc2nnc(-c3cccs3)n2Cc2ccco2)cc1 | -6.07%
Cc1ccc(N(C(=O)c2csnn2)C(C(=O)NC2CCCC2)c2cccnc2)c(C)c1 (stereo not shown) | 9.95%
O=C(CSc1nnc(NC(=O)c2ccc(F)cc2)s1)NCc1ccco1 | 23.6%
CS(=O)(=O)N(Cc1ccccc1Cl)c1ccc(C(=O)NCc2ccccn2)cc1 | 5.7%
COC(=O)CNC(=O)c1cc(-c2ccncc2)nc2ccccc12 | 14.2%
CCC(=O)N1CCc2cc(Br)cc(S(=O)(=O)NCCN3CCCC3)c21 | 7.19%
N#Cc1ccccc1OCC(=O)NCc1ccccc1CN1CCCC1 | 0.116%
CCC1CCCCN1C(=O)CSc1nnc(-c2ccc(Cl)cc2)o1 (stereo not shown) | -1.62%
COc1ccccc1N(Cc1cc(=O)[nH]c2ccccc12)C(=O)c1cccc([N+](=O)[O-])c1 | 12.5%
O=C(NC1=NCCS1)C1CCN(S(=O)(=O)c2ccc(Cl)cc2)CC1 | -4.26%
Cc1ccc(NC(=O)Cn2cccc2)cc1 | -12%
CCOc1ccc(S(=O)(=O)N2CCN(C(=O)CCC(=O)N3CCOCC3)CC2)cc1 | 7.16%
CC(C)c1ccc(NC(=O)C2CC3CCC2C3)cc1 (stereo not shown) | 10.9%

SMILES | hERG current change (%, negative = inhibition) at 1uM
CCOC(=O)c1sc2nc(C)nc(SCC(=O)NC(C)CCc3ccccc3)c2c1C (stereo not shown) | 8.54%
COc1ccccc1NS(=O)(=O)c1cccc(C(=O)N2CCN(C(=O)c3ccco3)CC2)c1 | 5.46%
COCCn1c(C)cc(C(=O)COC(=O)c2[nH]c(C)c(C(C)=O)c2C)c1C | -5.39%
Br.COc1ccc(-c2csc(Nc3ccc(S(N)(=O)=O)cc3)n2)cc1 | 8.56%
CC1CCN(S(=O)(=O)c2ccc3c(c2)N(CC(=O)NCCCN2CC(C)CC(C)C2)C(=O)CS3)CC1 (stereo not shown) | -9.25%
COc1cc([N+](=O)[O-])ccc1NC(=O)CN1CCOCC1 | 13.9%
CCn1nc(C)c(/C=N/NC(=O)Cn2nnnc2N)c1C | 16.8%
CCc1ccc2nc3n[nH]c(N)c3cc2c1 | 10%
Cc1[nH]c2ccccc2c1N=Nc1cc(C(=O)O)cc(C(=O)O)c1 | -1.45%
O=C(CCn1cnc2ccccc2c1=O)Nc1ccc(S(=O)(=O)N2CCCC2)cc1 | 17.7%
CCOC(=O)N1CCN(C(=O)c2ccc3c(c2)N(CC)CCS3)CC1 | 1.1%
COC(=O)C1=C(C)NC(=S)NC1c1ccc(-c2cccc(Cl)c2)o1 (stereo not shown) | 7.5%
CCOC(=O)c1[nH]c(COC(=O)CCOc2ccccc2OC)c(C(=O)OCC)c1C | -0.0392%
c1ccc2c(c1)ncn2CCC1CCCCC1 | 0.862%
O=C(Nc1ccccn1)c1ccc(Cl)c(S(=O)(=O)N2CCCCCC2)c1 | -7.48%
CCCCCCOc1ccc(N2C(=O)CC(S/C(N)=N/N=C(\C)c3cccs3)C2=O)cc1 (stereo not shown) | 1.56%
Cc1cccc(NC(=O)C(Cc2ccccc2)n2cccc2)c1 (stereo not shown) | -9.38%
O=C1c2cccnc2C(=O)N1Cc1cccs1 | 1.3%
Nc1ccn(CC(=O)NCCNc2ccc([N+](=O)[O-])cn2)c(=O)n1 | 7.67%
CC(C)CCOc1ccc(C(=O)NCC(c2cccs2)N2CCOCC2)cc1 (stereo not shown) | 12.4%
COc1cc(CO)ccc1Oc1nnnn1-c1ccc(C(N)=O)cc1 | 4.09%
